From PubChem BioAssay AID1347430 (National Center for Advancing Translational Sciences (NCATS), 2020)
In all, about 91,000 compounds went through this assay and about 130 (0.14%) were called active. The inconclusive results got no clear call from the source; some entries with a clear call stand among them for comparison. Calls follow the shape of the dose curve; as a rule, active = well fitted inhibition curve with a large enough effect; inconclusive = small, poorly fitted or top-dose-only effect; inactive = flat fitted curve, though single readings scatter. Where the call is inconclusive, the potency comes from a doubtful curve fit.
Also: nearly all actives have a fitted effect of over 65% in size.
Potency is read from the fitted curve at half-maximal effect; tags tell the direction and shape of the fitted curve.

Each molecule was assayed on Uracil-DNA glycosylase (assay: Primary qHTS assay for inhibitors of Activation Induced Cytidine Deaminase (AID): UDG Counterscreen signal). Details: FRET deamination/UDG coupled assay, UDG read, 4 h; series mostly up to 115 µM.
In the case of `O=C(Nc1ccccc1C(F)(F)F)C1CCN(c2nnc(-n3cccc3)s2)CC1`, the Potency is reported as “inactive”. With `Cc1ccc(Cl)cc1OCc1n[nH]c(=S)n1C` the Potency was “inactive”. `O=C(CSc1nc2c(c(=O)[nH]1)CCC2)Nc1cc(C(F)(F)F)ccc1Cl` was tested, and the Potency was inconclusive: 56.2 µM [inhibitor, partial curve, poor fit]. In the case of `Cc1ccc(C(=O)c2cn(Cc3ccccc3)c3cc4c(cc3c2=O)OCCO4)cc1`, the Potency is reported as inconclusive: 70.8 µM [inhibitor, partial curve, poor fit]. With `Fc1ccc(OCc2nn3c(CSc4ccccc4)nnc3s2)cc1` the Potency was inconclusive: 89.1 µM [inhibitor, single point]. With `Cc1nn(C(C)C(=O)Nc2cccc(F)c2)c(=O)c2c1sc1ccccc12` (stereo not drawn) the Potency was inconclusive: 100 µM [inhibitor, single point]. In the case of `Cc1ccc(Nc2c(-c3ccc(N4CCOCC4)cc3)nc3ncccn23)c(C)c1`, the Potency is reported as inconclusive: 89.1 µM [inhibitor, single point]. `Cc1cc(C)c(NS(=O)(=O)c2ccc3c(c2)NC(=O)CCS3)c(C)c1` was tested, and the Potency was “inactive”. For `O=C(COc1ccc(Cl)cc1)N(Cc1ccco1)c1ccccn1`, the Potency was inconclusive: 89.1 µM [inhibitor, single point]. For `CCOc1ccccc1NC(=O)N(C)CCc1c(C)nn(CC)c1C`, the Potency was inconclusive: 89.1 µM [inhibitor, partial curve, poor fit]. In the case of `CCOc1ccc(NC(=O)CN(Cc2ccccc2)S(=O)(=O)c2ccc(Cl)cc2)cc1`, the Potency is reported as inconclusive: 100 µM [inhibitor, partial curve, poor fit]. In the case of `Cc1c(Cl)cccc1NC(=O)c1ccc(NC(=O)N2CCSc3ncccc32)cc1`, the Potency is reported as inconclusive: 89.1 µM [inhibitor, single point]. With `CCOc1cc(C#N)c(NC(=O)c2cccc(S(=O)(=O)N3CCOCC3)c2)cc1OCC` the Potency was inconclusive: 89.1 µM [inhibitor, partial curve, poor fit]. With `Cc1sc2c(c1C)c(=O)n(-c1ccccc1)c(=O)n2CC(=O)c1ccc(Cl)cc1` the Potency was inconclusive: 39.8 µM [inhibitor, partial curve, poor fit]. `CC(=O)c1cccc(NCc2ccccc2-c2nnc(-c3ccccc3)o2)c1` was tested, and the Potency was inconclusive: 100 µM [inhibitor, single point]. In the case of `CCCCCSc1nc2c(c(=O)n(C)c(=O)n2C)n1C/C=C/c1ccccc1`, the Potency is reported as “inactive”. `CCSc1ncc(Cl)c(C(=O)N(Cc2ccccc2Cl)C2CCS(=O)(=O)C2)n1` (stereo not drawn) was tested, and the Potency was inconclusive: 89.1 µM [inhibitor, single point]. `COc1ccc(Cl)cc1NC(=O)COc1ccccc1` was tested, and the Potency was inconclusive: 89.1 µM [inhibitor, single point]. With `Cc1cc(C)c2c(c1)/C(=N/Nc1nc3ccccc3[nH]1)CCC2` the Potency was “inactive”. For `COc1ccccc1Cn1c(C2CC(=O)N(c3ccccc3OC)C2)nc2ccccc21` (stereo not drawn), the Potency was inconclusive: 89.1 µM [inhibitor, partial curve, poor fit]. For `COc1ccccc1CNC(=O)C(=O)NCC(c1cccnc1)N1CCN(c2ccccc2)CC1` (stereo not drawn), the Potency was “inactive”. `Cn1c(=O)c2c(-c3ccccc3)n3c(c2n(C)c1=O)C(c1ccc([N+](=O)[O-])cc1)Nc1ccccc1-3` (stereo not drawn) was tested, and the Potency was inconclusive: 89.1 µM [inhibitor, partial curve, poor fit]. `COc1ccc(C(=O)Nc2ccc3c(c2)N(C2CCCC2)C(=O)c2ccccc2S3)cc1OC` was tested, and the Potency was inconclusive: 70.8 µM [inhibitor, partial curve]. In the case of `CN(C)CCOC(=O)C12CCC3CC(CC(C3)C1)C2`, the Potency is reported as “inactive”. In the case of `O=C(c1ccccc1O)N1CCN(C(=O)c2cc(=O)[nH]c3ccccc23)CC1`, the Potency is reported as “inactive”. For `Cc1ccc(Cl)cc1N1CCN(C(=O)c2sc3nc4n(c(=O)c3c2C)CCC4)CC1`, the Potency was inconclusive: 89.1 µM [inhibitor, single point]. In the case of `CCOc1ccc(CN(C(=O)c2nc(SC)ncc2Cl)C2CCS(=O)(=O)C2)cc1` (stereo not drawn), the Potency is reported as inconclusive: 89.1 µM [inhibitor, single point]. In the case of `Cc1cccc(N2CC(c3nc4ccccc4n3CCC3CCCCC3)CC2=O)c1` (stereo not drawn), the Potency is reported as inconclusive: 79.4 µM [inhibitor, partial curve, poor fit]. `COCCn1c(C)cc(O)c(C(c2ccc(Cl)cc2)N2CCN(c3ccccc3)CC2)c1=O` (stereo not drawn) was tested, and the Potency was inconclusive: 89.1 µM [inhibitor, single point]. In the case of `COc1ccc(-c2cc(NC(=O)c3cccc(S(=O)(=O)NCC4CCCO4)c3)ccc2OC)cc1` (stereo not drawn), the Potency is reported as “inactive”. For `COc1ccc2cc(S(=O)(=O)c3ccc(C(C)C)cc3)c(=O)oc2c1`, the Potency was “inactive”. For `CC(NC(=O)c1c2c(nc3ccccc13)C(=O)N(C1CCCCC1)C2)c1ccccc1` (stereo not drawn), the Potency was inconclusive: 89.1 µM [inhibitor, single point]. With `O=c1n(Cc2ccc(F)cc2)nc2n1-c1cc(Cl)ccc1OC2` the Potency was “inactive”. With `CCOc1ccccc1CNC(=O)c1cnc2c(-c3ccc(OCC)c(OCC)c3)c(C)nn2c1C` the Potency was inconclusive: 89.1 µM [inhibitor, partial curve, poor fit]. For `CSc1ccc(-c2ccnc3nc(N4CCOCC4)[nH]c(=O)c23)cc1`, the Potency was “inactive”. `CCOc1ccccc1CNC(=O)c1ccc(-c2nc(CSc3ccc(C)cc3)c(C)o2)cc1` was tested, and the Potency was inconclusive: 89.1 µM [inhibitor, single point]. `CC(C)Nc1nc(-c2ccc(NC(=O)C(C)(C)C)cc2)cs1` was tested, and the Potency was “inactive”. With `COc1ccccc1CC(=O)N(Cc1nc(-c2ccc(C)cc2)no1)C1CCCCC1` the Potency was inconclusive: 79.4 µM [inhibitor, single point]. With `COc1ccc(Cl)cc1NC(=O)CSC1=Nc2ccccc2C2=NC(CC(=O)NC3CCCCC3)C(=O)N12` (stereo not drawn) the Potency was “inactive”. In the case of `COc1ccccc1CNC(=O)CCC1N=C2c3ccccc3N=C(SCC(N)=O)N2C1=O` (stereo not drawn), the Potency is reported as inconclusive: 89.1 µM [inhibitor, partial curve, poor fit]. With `Cc1nn(C(C)C(=O)NCc2ccco2)c(=O)c2c1sc1ccccc12` (stereo not drawn) the Potency was “inactive”. For `CCSc1ncc(Cl)c(C(=O)Nc2ccc(S(=O)(=O)N3CCC(C)CC3)cc2)n1`, the Potency was inconclusive: 89.1 µM [inhibitor, single point]. For `Cc1cccc(Nc2c(-c3cccs3)nc3nc(C)cc(C)n23)c1`, the Potency was inconclusive: 100 µM [inhibitor, single point]. With `Cc1ccc(CNC(=O)c2cnc(N3CCCCC3)c3ccccc23)cc1` the Potency was inconclusive: 89.1 µM [inhibitor, partial curve, poor fit]. `Cc1ccc(Cl)cc1-n1ncc2c(NC3CCCCC3)ncnc21` was tested, and the Potency was inconclusive: 89.1 µM [inhibitor, partial curve, poor fit]. For `Cc1ccc2nc(Cl)c3cc(C(=O)N4CCCCC4)sc3c2c1`, the Potency was inconclusive: 79.4 µM [inhibitor, single point]. `COC(=O)c1cc(S(=O)(=O)NCC2CCN(Cc3cccc(F)c3)CC2)cn1C` was tested, and the Potency was inconclusive: 89.1 µM [inhibitor, single point]. In the case of `CCC(NC(=O)C(C)c1ccc(-c2ccccc2)c(F)c1)C(=O)O` (stereo not drawn), the Potency is reported as “inactive”. `Cn1c(=O)c2c(nc(SCC(=O)Nc3ccc(F)c(F)c3)n2Cc2ccccc2F)n(C)c1=O` was tested, and the Potency was inconclusive: 100 µM [inhibitor, single point]. For `COc1ccc(CCN2CNc3c(c(=O)[nH]c(=O)n3-c3ccccc3Cl)C2)cc1OC`, the Potency was “inactive”. `COc1ccc(NC(=O)CCn2cnc3onc(-c4ccc(F)cc4)c3c2=O)cc1OC` was tested, and the Potency was inconclusive: 56.2 µM [inhibitor, partial curve, poor fit]. For `Cc1ccc(S(=O)(=O)NCCc2nnc3ccc(SCC(=O)Nc4ccc(F)cc4F)nn23)cc1`, the Potency was inconclusive: 89.1 µM [inhibitor, single point]. In the case of `COc1ccccc1C(=O)N(c1ccc(C)cc1)S(=O)(=O)c1ccc(Cl)cc1`, the Potency is reported as inconclusive: 100 µM [inhibitor, partial curve, poor fit]. With `Cc1ccc(Cl)cc1-n1ncc2c(NCCc3ccccc3)ncnc21` the Potency was inconclusive: 89.1 µM [inhibitor, partial curve, poor fit]. In the case of `Cc1ccc2nc(Cl)c(C3CC(c4ccco4)=NN3S(C)(=O)=O)cc2c1` (stereo not drawn), the Potency is reported as inconclusive: 89.1 µM [inhibitor, single point]. For `COc1ccc(S(=O)(=O)N(CC(=O)NC(C)c2ccccc2)c2ccc(C)cc2)cc1OC` (stereo not drawn), the Potency was inconclusive: 35.5 µM [inhibitor, partial curve, poor fit]. `Cc1ccc(-n2ncc3c(NCCCn4ccnc4)ncnc32)cc1C` was tested, and the Potency was inconclusive: 100 µM [inhibitor, single point]. For `Cc1noc(/C=C\c2ccc(S(=O)(=O)N3CCN(C4CCCCC4)CC3)cc2)c1NC(=O)C1CC1`, the Potency was inconclusive: 89.1 µM [inhibitor, single point]. In the case of `CCOc1ccc(NC(=O)C(c2ccccc2)c2ccccc2)c2cccnc12`, the Potency is reported as “inactive”. For `COc1cccc(NC(=O)Cn2c(=O)oc3cc(S(=O)(=O)N4CCCCC4)ccc32)c1`, the Potency was active: 89.1 µM. `Cc1nc2c3ccccc3nc(NNC(=O)CCC(=O)N3CCN(c4ccc(F)cc4)CC3)n2n1` was tested, and the Potency was inconclusive: 89.1 µM [inhibitor, single point]. In the case of `Cc1ccc2nc(COc3ccccc3NC(=O)Nc3ccc(F)c(Cl)c3)cc(=O)n2c1`, the Potency is reported as inconclusive: 89.1 µM [inhibitor, single point]. `COc1ccc(S(=O)(=O)c2c(Nc3cccc(Cl)c3)sc(C(=O)c3ccccc3)c2N)cc1` was tested, and the Potency was inconclusive: 89.1 µM [inhibitor, single point].
